# The full ranking holds about 110,000 compounds; the median of “z-score” is about -0.1, and the highest 2% start at about 2. This is one part of the list. Calls of active or inactive are those of the source.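 The calls were made as follows: active = z-score in the third read window above 3 or below -3; inactive = the rest.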
# Biological target: Metabotropic glutamate receptor 8 (Rattus norvegicus) (UniProt P70579)
# Assay: mGluR8 Gi/Go-coupled signaling modulation – cell-based, rat, thallium flux, HTS, primary screen (AID 488969)
# Conditions: HEK293 rat mGluR8, GIRK (G protein-gated inwardly rectifying potassium channel) thallium flux, FluoZin2; at 10 µM; stronger effect = higher value; submaximal glutamate (EC20) added with thallium
# Sequence of UniProt P70579 (P70579 whole entry, looked up): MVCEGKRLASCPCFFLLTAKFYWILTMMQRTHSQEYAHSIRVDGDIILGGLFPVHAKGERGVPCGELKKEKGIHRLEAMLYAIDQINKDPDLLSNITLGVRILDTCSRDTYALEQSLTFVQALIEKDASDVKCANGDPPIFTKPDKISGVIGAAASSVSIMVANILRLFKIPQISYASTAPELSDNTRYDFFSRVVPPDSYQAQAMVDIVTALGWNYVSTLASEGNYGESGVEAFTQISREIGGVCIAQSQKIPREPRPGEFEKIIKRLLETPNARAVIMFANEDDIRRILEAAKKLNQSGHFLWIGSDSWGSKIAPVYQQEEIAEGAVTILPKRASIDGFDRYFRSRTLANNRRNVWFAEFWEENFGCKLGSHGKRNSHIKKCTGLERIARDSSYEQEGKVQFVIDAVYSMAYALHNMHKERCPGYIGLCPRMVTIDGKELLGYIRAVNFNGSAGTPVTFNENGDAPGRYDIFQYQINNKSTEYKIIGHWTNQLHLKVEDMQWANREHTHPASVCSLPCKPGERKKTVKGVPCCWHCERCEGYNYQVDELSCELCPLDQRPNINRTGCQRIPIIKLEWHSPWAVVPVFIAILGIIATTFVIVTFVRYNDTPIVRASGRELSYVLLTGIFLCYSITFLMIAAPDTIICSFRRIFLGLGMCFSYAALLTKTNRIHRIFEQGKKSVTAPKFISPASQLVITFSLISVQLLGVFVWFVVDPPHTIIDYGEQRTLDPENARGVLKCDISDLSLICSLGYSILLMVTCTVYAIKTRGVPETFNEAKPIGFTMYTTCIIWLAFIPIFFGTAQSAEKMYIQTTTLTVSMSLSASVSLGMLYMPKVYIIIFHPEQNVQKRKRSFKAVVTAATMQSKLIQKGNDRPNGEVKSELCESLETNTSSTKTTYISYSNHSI
row,SMILES,z-score
1,COc1ccc(S(=O)(=O)N(CC(=O)O)c2ccccc2)cc1,0.419
2,CC(=O)Nc1ccc(NC(=O)c2ccc(COc3ccc4c(C)cc(=O)oc4c3)cc2)cc1,-0.0603
3,Cc1c(N(C(=O)c2cc(=O)[nH]c3ccccc23)C(C)C)c(=O)n(-c2ccccc2)n1C,0.0816
4,COc1ccc(/C=C/C(=O)OCC(=O)NCc2cccs2)cc1OC,1.26
5,COC1(c2cc(-c3ccccc3)nc(N)n2)CCCCC1,0.701
6,O=C(CSc1nnc(CNc2ccc(F)cc2)o1)OC1CCCCC1,-2.6
7,Cc1cccc(C)c1NC(=O)C(=O)NCCOc1ccc(Cl)cc1,-0.267
8,CC1CCCC(NC(=O)Cc2ccc(Br)cc2)C1C (stereo unspecified),-0.139
9,c1ccc2c(-c3nc4ncccc4o3)cccc2c1,-0.189
10,Cn1c(Cn2nnc3ccccc32)nnc1SCC(=O)Nc1nccs1,-0.341
11,Cn1nnnc1SCc1cn2cccnc2n1,0.0961
12,COc1cc(/C=C/c2nnc3c4ccccc4ncn23)cc(OC)c1OC,-0.245
13,COc1ccc(CCC(=O)NCc2cn3ccsc3n2)cc1,0.0209
14,CCOC(=O)N1CCC(N2CCN(c3cc(C)ccc3C)CC2)CC1,-0.479
15,O=C(O)c1cc(N/N=C/c2ccc(N3CCOCC3)s2)ccc1Cl,-0.13
16,Cc1ccc(NC(=O)c2noc3c2CCc2ccccc2-3)cc1,0.349
17,COc1ccccc1CNc1ccc(C(=O)O)cc1,-0.0956
18,COc1cccc(C2C(C#N)=C(N)Oc3c2oc(CO)cc3=O)c1OC (stereo unspecified),-0.484
19,C=CCn1c(N)cc(=O)nc1SCC(=O)Nc1ccccc1,1.06
20,CCOC(=O)N1CCN(C2CC(=O)N(c3ccc(C)cc3)C2=O)CC1 (stereo unspecified),-0.18
21,CCOc1ccc(NC(=S)NCCCN2CCN(C3CCCCC3)CC2)cc1,0.0645
22,COc1cc(OC)cc(-c2nnc(SCC(=O)N3CCOCC3)o2)c1,0.337
23,Cc1sc2nc(C(C)Nc3ccccc3N3CCOCC3)[nH]c(=O)c2c1C (stereo unspecified),-0.62

row,SMILES,z-score
1,COc1ccc(C)cc1S(=O)(=O)N(CC(=O)NCc1ccc(Cl)cc1)Cc1ccccc1,-0.0694
2,CC(=O)Nc1ccc(C(=O)OCc2ccccc2Cl)cc1,0.177
3,CC1(C)Cc2c(c(N3CCOCC3)nc3sc4c(NN)ncnc4c23)CS1,-0.194
4,O=C(O)CC(C(=O)N(c1ccccc1)c1ccccc1)N1CCOCC1 (stereo unspecified),-0.293
5,Cn1c(SCc2ccccc2)nnc1-c1ccncc1,-0.0565
6,COc1ccccc1/C=C/C(=O)NC(=S)NC(C)C,0.776
7,CC1(C)Cc2nc3sc4c(N(CCO)CCO)ncnc4c3cc2CO1,-0.312
8,O=C(NC(=S)Nc1ccccc1N1CCOCC1)c1cccs1,active: 4.28
9,CCC1CCCCN1C(=O)CSc1nnc(CNC(=O)c2cc(OC)c(OC)c(OC)c2)o1 (stereo unspecified),-0.544
10,Cn1cc(C(=O)c2ccccc2)cc1-c1nc2ccccc2n1C,-0.215
11,COc1ccc2c(c1)C1(Nc3ccccc3-c3nc4ccccc4n31)C(=O)N2C (stereo unspecified),-0.0719
12,Cc1ccccc1-c1ccc(C=Nc2c(C)n(C)n(-c3ccccc3)c2=O)o1,-0.297
13,CCN1C(=O)C(O)(C2COC(C)(C)CC2=O)c2cc(Br)ccc21 (stereo unspecified),0.195
14,O=C(CSc1nnc(COc2ccccc2)n1-c1ccccc1)c1ccccc1,0.529
15,O=C(NC1=NCCS1)c1cccc(S(=O)(=O)N2CCCCC2)c1,-0.16
16,O=C(Oc1ccc(Cl)cc1N1C(=O)CCC1=O)c1ccco1,-0.348
17,CCCCOCC1CN(c2ccccc2)C(=O)CS1 (stereo unspecified),0.197
18,CCc1ccc2c(c1)C(c1ccc([N+](=O)[O-])cc1)=NNC(c1ccccc1)=N2,-0.173
19,CN1CC=C2C(C#N)=C(N)C(C#N)(C#N)C(Cc3ccccc3)C2C1 (stereo unspecified),-0.155
20,CNC(=S)N/N=C(\C)c1ccc(C(C)(C)C)cc1,2.03
21,CN(C)CCNC(=O)NC1CCCCC1,0.481
22,O=C(NCc1cccnc1)c1ccc(S(=O)(=O)N2CCCCC2)cc1,-0.0436
23,N#Cc1ncc(-c2ccc3c(c2)OCCOCCOCCOCCOCCO3)nc1C#N,-0.26

row,SMILES,z-score
1,CCC1(C)Cc2c(sc3nnn(CC(=O)Nc4ccccc4)c(=O)c23)CO1 (stereo unspecified),-0.58
2,CC1CCN(c2ccccc2NC(=S)NC(=O)c2ccc(-c3cccc([N+](=O)[O-])c3)o2)CC1,0.191
3,Cc1ccc(S(=O)(=O)Cc2ccc(C(=O)N3CCN(c4cc(C)ccc4C)CC3)o2)cc1,-0.0666
4,CC(C)(C)c1nn2cnnc2n(/N=C/c2ccccc2)c1=O,-0.108
5,COc1ccccc1Nc1nc(-c2sc(NC(=O)CC(C)C)nc2C)cs1,-0.0722
6,O=C1CC(SC(=Nc2ccccc2)Nc2ccccc2)C(=O)N1c1cccc2ccccc12 (stereo unspecified),0.381
7,Cc1c([N+](=O)[O-])c([N+](=O)[O-])nn1CC(=O)NCCc1ccccc1,-0.129
8,CCN(C(=O)c1coc(=O)c2ccccc12)c1cc(OC)ccc1OC,-0.298
9,COc1cccc(S(=O)(=O)NCc2ccc(C(=O)Nc3ccc(Cl)cc3)cc2)c1,-0.235
10,CC(C)CNS(=O)(=O)c1cc(C(=O)N2CCOCC2)c(Cl)cc1Cl,-0.135
11,Cc1ccc(C(C)C)c(OCC(O)CN2CC(C)OC(C)C2)c1 (stereo unspecified),0.11
12,COC(=O)/C(=C\Nc1ccc(Cl)c2ccccc12)c1ncc(C(F)(F)F)cc1Cl,-0.121
13,Cc1ccc(S(=O)(=O)NCCSc2nnc(N)s2)cc1,-0.295
14,CCOC(=O)C1=C(C)N(C)C(C)=C(C(=O)OCC)C1c1cccnc1,-0.0865
15,COc1ccccc1CNc1ccc(N2CCOCC2)c(C(=O)O)c1,0.805
16,Cc1ccc(OCCCCn2ccnc2)c(Cl)c1,0.882
17,CCCC1C2C(=O)N(c3ccccc3OCC)C(=O)C2ON1c1ccccc1 (stereo unspecified),0.107
18,CCN=c1scc(-c2ccco2)n1/N=C/c1ccc(OC)c(O)c1,0.709
19,COc1ccccc1CN1C(=O)c2cccc3cccc(c23)C1=O,-0.251
20,CCOC(=O)c1cnn(-c2cc(Oc3cccc(C)c3)ncn2)c1N,-0.381
21,CC(C)(C)c1ccc(S(=O)(=O)NCCc2ccncc2)cc1,0.0957
22,CCNC(=O)CCS(=O)(=O)c1ccc2ccccc2c1,0.0954
23,CC(C)(C)NC(=O)C(c1ccncc1)N(C(=O)Cn1nnc(-c2cccs2)n1)C1CCCCC1 (stereo unspecified),-0.081

row,SMILES,z-score
1,CCN(CC)CCn1c(=S)[nH]c2ccc(Cl)cc2c1=O,1.01
2,Cc1nc2ccccc2n1C(=O)N1CCOCC1,0.0113
3,Cc1cc(C)n(-c2ccc(C(=O)OC(C)C)cc2)n1,0.075
4,Oc1ccc(C2C(c3ccccc3)=NN=C(c3ccc(Cl)cc3)N2O)c(O)c1 (stereo unspecified),-0.173
5,COc1ccc(N2CCN(c3ncccn3)CC2)cc1,-0.0553
6,O=[N+]([O-])c1ccc(-c2nnc(-c3ccccc3)c(N3CCOCC3)n2)cc1,0.0632
7,Cc1ccc(S(=O)(=O)N(C)CC(=O)OCC(=O)NC(=O)Nc2ccc3c(c2)OCCO3)cc1,-0.391
8,Nc1cnc(-c2ccccc2)nc1Cl,-0.315
9,CCOC(=O)C1=C(C)OC(N)=C(C#N)C1c1ccc(O)c(OC)c1 (stereo unspecified),-0.941
10,CCOC(=O)c1c(C)c(C(=O)NCC2CCCO2)c(C)n1C (stereo unspecified),-0.262
11,CCC(CC)C1C(C#N)=C(N)SC(N)=C1C#N,-0.0721
12,COc1cc2c(cc1OC)C(C)N(C(=O)c1cc3n(n1)C(C(F)(F)F)CC(c1ccco1)N3)CC2 (stereo unspecified),-1.45
13,O=C(OCC(=O)N1CCCc2ccccc21)c1cccc(S(=O)(=O)N2CCc3ccccc32)c1,0.996
14,Cc1cc2cc(CNS(=O)(=O)c3ccc4ccccc4c3)ccc2n1C,-0.135
15,CN1C(=O)Cc2cc(S(=O)(=O)N3CCOCC3)ccc21,0.00719
16,Cn1c(CO)cnc1SCc1ccc(Cl)cc1,-0.181
17,CCOc1ccc2nc(SCC(=O)Nc3ncccn3)[nH]c2c1,-0.491
18,Cc1cc(NCc2ccccc2)nc(-c2ccccc2O)n1,-0.572
19,CC1(C)C(=O)OC(c2cccs2)C2(CCCCC2)C1=O (stereo unspecified),0.489
20,CN(C)S(=O)(=O)c1ccc(N2CCCC2=O)c([N+](=O)[O-])c1,-0.369
21,CCOC(=O)c1ccc(NC(=O)c2ccccc2N(C)S(=O)(=O)c2ccccc2)cc1,-0.254
22,Cc1cc(C)c(C(=O)c2ccc(C(=O)N(C(C)C)C(C)C)cc2)c(C)c1,-0.0179
23,C/C(=N\NC(=O)COc1cc(C)cc(C)c1)c1ccc(N2CCOCC2)cc1,-0.331

row,SMILES,z-score
1,COc1ccccc1CN(C)C(=O)c1ccc2c(c1)NC(=O)CS2,-0.304
2,Cc1nnc(SCC(=O)Nc2ncc(S(=O)(=O)c3ccc([N+](=O)[O-])cc3)s2)s1,-0.626
3,CCNC(=S)NNC(=O)c1cccn(Cc2ccc(Cl)cc2)c1=O,0.759
4,CC(=O)Nc1cccc(OCC(=O)NS(=O)(=O)c2ccc(C)cc2)c1,-0.0467
5,COC(=O)c1cnc2c(C(F)(F)F)cccc2c1OC,0.434
6,C=CCn1c(COc2cccc3cccnc23)nnc1SCC(=O)OC,-0.286
7,CCCn1c(=N)c(C(=O)NCC2CCCO2)cc2c(=O)n3cccc(C)c3nc21 (stereo unspecified),0.17
8,Cc1cc(=O)c2cccc(Br)c2[nH]1,0.656
9,Cc1cc(C)c(NN=c2c(=O)c3ccccc3c2=O)c(C)c1,0.225
10,COc1ccc(NC(=S)N2CCc3ccccc3C2)cc1,-0.0767
11,Cc1ccc2c(CC(=O)OC(C)C(=O)NCc3ccc4c(c3)OCO4)coc2c1 (stereo unspecified),2.05
12,CCCCc1ccc(C2C3=C(CC(C)(C)CC3=O)NC3=C2C(=O)c2ccccc23)cc1 (stereo unspecified),-0.0176
13,CCOc1ccc(CCNC(=O)C2CCC(=O)N2CCc2ccccc2)cc1OCC (stereo unspecified),0.408
14,COc1ccc(Cl)cc1S(=O)(=O)N1CCCC(C(=O)NCC(N)=O)C1 (stereo unspecified),0.286
15,Cc1cnc(C(=O)Nc2ccc(C(=O)N3CCCCC3)cc2)cn1,0.103
16,Cc1ccc(S(=O)(=O)N2CCCCCC2)cc1[N+](=O)[O-],-0.508
17,NC(=S)Nc1cccc2cc3ccccc3cc12,-0.237
18,Cc1nn(Cc2ccc(C(=O)N3N=C(C(F)F)CC3(O)C(F)F)cc2)c(C)c1[N+](=O)[O-] (stereo unspecified),-0.326
19,CCCS(=O)(=O)N1CCN(CC2CC3C=CC2C3)CC1 (stereo unspecified),0.569

# Source: PubChem BioAssay AID488969 (Vanderbilt High Throughput Screening Facility, 2010)
